Measured values: PubChem BioAssay AID2100 (National Center for Advancing Translational Sciences (NCATS), 2009)
Hit rate of the full screen: of about 300,000 compounds, about 1,200 (0.4%) were called active. Inconclusive results, whose numbers are uncertain, are shown with a selection of clear calls. The call rests on the fitted dose curve; in most records, active means well fitted inhibition curve with a large enough effect; inconclusive means small, poorly fitted or top-dose-only effect, or another doubt; inactive means no such curve, though single readings can be large or run the other way. A potency beside an inconclusive call is a rough fit, not a confirmed value.

These molecules were tested against Lysosomal alpha-glucosidase (Homo sapiens) (UniProt P10253) (assay: qHTS Assay for Inhibitors and Activators of Human alpha-Glucosidase Cleavage of Glycogen). Conditions: recombinant GAA, glycogen substrate, Amplex Red glucose oxidase fluorescence; activity change, negative = inhibition: at 76.4 µM (top of the series) unless noted.
How it was run: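 qHTS, 1536-well; enzyme 4 nM final; cpd up to 77 uM; substrate bovine liver glycogen 30 ug; 50 mM citrate/phosphate pH 5.0, 0.01% Tween-20; 37 C, 40 min; Amplex Red detection 45 min RT; Hill fit → AC50.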
Potency means the concentration at half of the fitted maximal effect.
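Wherever activity change, negative = inhibition is given: 0% = full enzyme reaction and -100% = no-enzyme basal signal.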

| Structure (SMILES) | Potency | activity change, negative = inhibition |
| --- | --- | --- |
| CCOC(=O)c1ccc(NCCc2ccc(OC)c(OC)c2)c(N)c1 | inconclusive: 11.2 µM [inhibitor, single point] | – |
| Cc1ccc(N/N=C2\CCS(=O)(=O)c3sccc32)cc1 | inconclusive: 31.6 µM [inhibitor, partial curve] | – |
| O=S1(=O)N=C(N/N=C/c2ccccn2)c2ccccc21 | inconclusive: 39.8 µM [inhibitor, partial curve] | – |
| COc1ccc(Nc2nnc(SCC(=O)c3cc4ccccc4o3)s2)cc1 | inconclusive: 25.1 µM [inhibitor, partial curve] | – |
| COc1cc(/C=N/NC(=O)c2ccc3nc[nH]c3c2)ccc1O | inconclusive: 25.1 µM [inhibitor, single point] | – |
| O=C(/C=C/Nc1ccccc1Oc1ccccc1)c1ccco1 | – | inactive: -10.2% |
| Cc1[nH]c2c(C)cccc2c1CC(=O)O | inconclusive: 24.9 µM [inhibitor, partial curve] | – |
| CSc1ccc(-c2nc3cc(C)ccn3c2Nc2ccc(C)cc2)cc1 | – | inactive: 7.36% [at 76.3 µM] |
| CCCC(=O)N1CCN(c2ccc(NC(=O)c3sc4ccccc4c3Cl)cc2)CC1 | inconclusive: 44.7 µM [inhibitor, single point] | – |
| CCCCn1c(C2CC(=O)N(c3ccc(OCC)cc3)C2)nc2ccccc21 (configuration not stated) | – | inactive: 12.1% [at 76.3 µM] |
| CCC12CCCN3CCc4c(n(c5ccccc45)C(O)(C(=O)OC)C1)C32 (configuration not stated) | inconclusive: 19.8 µM [activator, partial curve] | – |
| O=C(NCc1ccccn1)C(=O)NN=C1CCCCCCC1 | active: 31.6 µM | – |
| C/C(=N/NC(=O)c1cc(O)c(O)c(O)c1)c1ccc([N+](=O)[O-])cc1 | inconclusive: 2.8 µM [inhibitor, full curve] | – |
| Cc1cc(=O)[nH]c(N/N=C/C(C)c2ccccc2)n1 (configuration not stated) | inconclusive: 50.1 µM [activator, single point] | – |
| Cc1ccc(Nc2c(-c3ccc(N4CCOCC4)cc3)nc3ncccn23)c(C)c1 | active: 31.6 µM | – |
| COc1ccc(-n2sc3c(c2=S)-c2cc(OC)ccc2NC3(C)C)cc1 | inconclusive: 35.5 µM [inhibitor, partial curve] | – |
| Cc1ccc(C)c(NC(=O)CCC(=O)N/N=C2/CC(=O)CC(C)(C)C2)c1 | inconclusive: 56.2 µM [inhibitor, single point] | – |
| Cc1cccc2nc(-c3ccco3)c(Nc3ccccc3)n12 | inconclusive: 3.98 µM [inhibitor, full curve] | – |
| Cc1cc(C)c(O)c(-c2n[nH]c3c2C(c2cccc(O)c2)N(Cc2ccco2)C3=O)c1 (configuration not stated) | inconclusive: 50.1 µM [inhibitor, single point] | – |
| O=C(NNc1c2ccccc2nc2ccccc12)c1ccc(Cl)cc1 | inconclusive: 50.1 µM [inhibitor, single point] | – |
| COc1cc(C2NC(=O)NC(C)=C2C(=O)OCc2ccccc2)ccc1O (configuration not stated) | inconclusive: 39.8 µM [inhibitor, partial curve] | – |

| Structure (SMILES) | Potency | activity change, negative = inhibition |
| --- | --- | --- |
| Cn1c(NNC(=O)c2ccccc2F)cc(=O)n(C)c1=O | inconclusive: 8.91 µM [inhibitor, partial curve] | – |
| Cc1nnsc1C(=O)NNC(=O)Nc1ccccc1 | inconclusive: 11.1 µM [inhibitor, partial curve] | – |
| C/C(=N/NC(=O)c1ccccn1)c1ccncc1 | inconclusive: 31.6 µM [inhibitor, single point] | – |
| Cn1c(N2CCOCC2)c(/C=N/O)c2ccccc21 | inconclusive: 14.1 µM [inhibitor, partial curve] | – |
| NNc1nc2c(-c3ccc(Cl)cc3)nnn2c2ccccc12 | inconclusive: 31.6 µM [inhibitor, single point] | – |
| NC(=O)C1CCN(C2=C(NS(=O)(=O)c3ccccc3)C(=O)c3ccccc3C2=O)CC1 | inconclusive: 50.1 µM [inhibitor, single point] | – |
| O=[N+]([O-])c1cc([N+](=O)[O-])c2nonc2c1Nc1ccccc1O | inconclusive: 3.98 µM [inhibitor, full curve] | – |
| CC(=O)Nc1ccc(S(=O)(=O)NC2=C(N3CCN(c4ccc(F)cc4)CC3)C(=O)c3ccccc3C2=O)cc1 | inconclusive: 11.1 µM [inhibitor, partial curve] | – |
| COc1cc(-c2[nH]nc3c2C(c2ccoc2)C(C#N)=C(N)O3)cc(OC)c1OC (configuration not stated) | inconclusive: 35.5 µM [inhibitor, partial curve] | – |
| CC(C)c1ccc(NC(=S)Nc2cccc3ccccc23)cc1 | active: 39.8 µM | – |
| O=C(CSc1nc(O)cc(=O)n1C1CCCC1)Nc1cccc(Cl)c1Cl | inconclusive: 63.1 µM [inhibitor, partial curve, poor fit] | – |
| COc1cccc2c(SCC(=O)N/N=C/c3ccc(O)c(O)c3)cc(C)nc12 | active: 3.14 µM | – |
| Cc1c(Nc2nc(-c3ccc(Cl)cc3)cs2)c(=O)n(-c2ccccc2)n1C | inconclusive: 22.4 µM [inhibitor, partial curve] | – |
| COc1cc(/C=N/c2oc(-c3ccccc3)cc2C#N)ccc1O | inconclusive: 28.2 µM [inhibitor, partial curve] | – |
| O=C(NNc1nc2ccccc2s1)Nc1ccc(F)cc1 | inconclusive: 22.4 µM [inhibitor, partial curve, poor fit] | – |
| CCOc1ccc(Nc2nc(Cc3nnc(SCC(N)=O)o3)cs2)cc1 | inconclusive: 19.8 µM [inhibitor, partial curve] | – |
| CCN(CC)c1ccc(NC(=O)CN(C)Cc2cccs2)cc1 | inconclusive: 14.1 µM [inhibitor, partial curve] | – |
| CCN1CCSc2ccc(C(=O)NCc3cccc(F)c3)cc21 | inconclusive: 28.2 µM [inhibitor, single point] | – |
| C/C(=N\Nc1ccc(Cl)cc1)c1c(O)cc(C)oc1=O | inconclusive: 25.1 µM [inhibitor, partial curve] | – |
| N#CC1C(C#N)N2CCCN2C1c1ccc(Br)cc1 (configuration not stated) | inconclusive: 5.01 µM [inhibitor, partial curve, poor fit] | – |
| Cc1cc(C)c2c(N)c(C(=O)NN3CC(=O)N(c4ccccc4)CC3=O)sc2n1 | inconclusive: 20 µM [inhibitor, partial curve] | – |
